Target: T1, IscU-(his)6, wild-type E. coli IscU scaffold protein (E. coli), P0ACD4
T1 chain: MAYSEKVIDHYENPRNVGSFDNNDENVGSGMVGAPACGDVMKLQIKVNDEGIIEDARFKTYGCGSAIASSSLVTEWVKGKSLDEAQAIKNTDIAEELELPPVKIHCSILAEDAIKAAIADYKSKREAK
Test: SEC; gel filtration on Superdex 75 10/300 GL in 0.1 M Tris-HCl pH 8, 50 mM NaCl; oligomeric state from a calibration curve (ribonuclease A, chymotrypsinogen A, ovalbumin)
Details: remark: other sources report otherwise

- stoichiometry N: 2
B1: IscU-(his)6, wild-type E. coli IscU scaffold protein, P0ACD4 1-128 (natural protein)
chain: MAYSEKVIDHYENPRNVGSFDNNDENVGSGMVGAPACGDVMKLQIKVNDEGIIEDARFKTYGCGSAIASSSLVTEWVKGKSLDEAQAIKNTDIAEELELPPVKIHCSILAEDAIKAAIADYKSKREAK

Reference: publication PMC4440780
